Assay results from the supplement of paper PMC4604168 (melanoma cell lines).
The other results are listed elsewhere or left out. Repeats are few or missing, and single values can be far off.

Key:
Test in all cases: cell count relative to DMSO control; melanoma cells; higher = more viable cells
Conditions in all cases: library dose: low library concentration; 72 h
WM115 = test system: WM115
WM1716 = test system: WM1716
WM1745 = test system: WM1745
WM3526 = test system: WM3526
WM3619 = test system: WM3619
WM451Lu = test system: WM451Lu
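Note: cell number obtained by counting DAPI-stained nuclei in high-throughput microscope images with image analysis software, screen run in 1,536-well plates.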

Row | Structure (SMILES) | cell count (WM115) | cell count (WM1716) | cell count (WM1745) | cell count (WM3526) | cell count (WM3619) | cell count (WM451Lu)
1 | COc1ccc(C2=N[C@@H](c3ccc(Cl)cc3)[C@@H](c3ccc(Cl)cc3)N2C(=O)N2CCNC(=O)C2)c(OC(C)C)c1 [Nutlin-3] + O=C1NC(=O)/C(=C/c2ccc(-c3ccc(F)cc3O)o2)S1 [AS252424] (first compound 0.1 µM, partner dose 1 µM) | 80.6% | 81.9% | 102% | 90.7% | 71.2% | 90.9%
2 | Cn1c(=O)n(-c2ccc(C(C)(C)C#N)cc2)c2c3cc(-c4cnc5ccccc5c4)ccc3ncc21 + CC1(C)NC(=O)N(c2ccc([N+](=O)[O-])c(C(F)(F)F)c2)C1=O [nilutamide] (first compound 0.004 µM, partner dose 1 µM) | 83.4% | 72.7% | 88.7% | 94.3% | 95.7% | 85.5%
3 | Cc1cc(Nc2cc(N3CCN(C)CC3)nc(/C=C/c3ccccc3)n2)n[nH]1 + C[C@@H](Oc1cc(-c2cnn(C3CCNCC3)c2)cnc1N)c1c(Cl)ccc(F)c1Cl [Crizotinib] (first compound 0.04 µM, partner dose 0.2 µM) | 96.1% | 104% | 72.9% | 82.2% | 125% | 99.9%
4 | COc1ccc(C2=N[C@@H](c3ccc(Cl)cc3)[C@@H](c3ccc(Cl)cc3)N2C(=O)N2CCNC(=O)C2)c(OC(C)C)c1 [Nutlin-3] + Nc1ccn([C@@H]2O[C@H](CO)[C@@H](O)C2(F)F)c(=O)n1 [gemcitabine] (first compound 0.1 µM, partner dose 0.0004 µM) | 97.9% | 99.2% | 79% | 88.9% | 66.3% | 111%
5 | CC(C)C[C@H](NC(=O)[C@H](Cc1ccccc1)NC(=O)c1cnccn1)B(O)O [Bortezomib] + COc1cc2ncnc(Nc3ccc(Oc4ccccc4)cc3)c2cc1OC [SrcI1] (first compound 0.001 µM, partner dose 2 µM) | 124% | 23.3% | 29.6% | 76.7% | 6.26% | 91.9%
6 | Cc1cc(Nc2cc(N3CCN(C)CC3)nc(/C=C/c3ccccc3)n2)n[nH]1 + COc1cc(Nc2ncc(F)c(Nc3ccc4c(n3)NC(=O)C(C)(C)O4)n2)cc(OC)c1OC [Tamatinib] (first compound 0.04 µM, partner dose 0.4 µM) | 90.4% | 102% | 76.8% | 99.9% | 90.1% | 82.7%
7 | Cn1c(=O)n(-c2ccc(C(C)(C)C#N)cc2)c2c3cc(-c4cnc5ccccc5c4)ccc3ncc21 + NCC(=O)Nc1ccc(-n2nc(C(F)(F)F)cc2-c2ccc3c(ccc4ccccc43)c2)cc1 [OSU03012] (first compound 0.004 µM, partner dose 1 µM) | 88.9% | 74.1% | 89.6% | 56.2% | 106% | 64.9%
8 | Cc1cc(Nc2cc(N3CCN(C)CC3)nc(/C=C/c3ccccc3)n2)n[nH]1 + NCC(=O)Nc1ccc(-n2nc(C(F)(F)F)cc2-c2ccc3c(ccc4ccccc43)c2)cc1 [OSU03012] (first compound 0.04 µM, partner dose 1 µM) | 96.7% | 106% | 105% | 73.9% | 76.6% | 82.5%
9 | Cc1cn(-c2cc(NC(=O)c3ccc(C)c(Nc4nccc(-c5cccnc5)n4)c3)cc(C(F)(F)F)c2)cn1 [nilotinib] + C[C@]1(c2nc3c(C(N)=O)cccc3[nH]2)CCCN1 [Veliparib] (first compound 0.2 µM, partner dose 1.4 µM) | 93.7% | 98.2% | 71.1% | 105% | 93.2% | 97.5%
10 | Cc1cc(Nc2cc(N3CCN(C)CC3)nc(/C=C/c3ccccc3)n2)n[nH]1 + COc1ccc(COc2ccc(Cc3cnc(N)nc3N)cc2OC)cc1 [GW2580] (first compound 0.04 µM, partner dose 1 µM) | 96.5% | 88.4% | 85.7% | 103% | 94.1% | 98%
11 | Cc1cn(-c2cc(NC(=O)c3ccc(C)c(Nc4nccc(-c5cccnc5)n4)c3)cc(C(F)(F)F)c2)cn1 [nilotinib] + O=C(CCCCCCC(=O)Nc1ccccc1)NO [vorinostat] (first compound 0.2 µM, partner dose 0.08 µM) | 126% | 83.7% | 83.3% | 96.7% | 101% | 87.2%
12 | Cn1c(=O)n(-c2ccc(C(C)(C)C#N)cc2)c2c3cc(-c4cnc5ccccc5c4)ccc3ncc21 + Cn1c(Nc2ccc(C(F)(F)F)cc2)nc2cc(Oc3ccnc(-c4ncc(C(F)(F)F)[nH]4)c3)ccc21 [CHIR265] (first compound 0.004 µM, partner dose 0.08 µM) | 46.2% | 65.5% | 68.9% | 42% | 43.7% | 93.7%
